This is an account of results in patent US20250228917A1 (SALUBRIS BIOTHERAPEUTICS, published 2025).

Broadly, the koff is the rate constant with which the complex falls apart. Usually kon stands for the rate constant with which the complex forms.

In one test the target is T1, mouse HER3 antigen (mouse, UniProt Q61526 20-641, limits assumed).
T1 construct: also called HER3 (mouse)
Kind of test: BIAcore SPR, 1:1 binding model (Group 3). (SPR reads the build-up and loss of mass on a sensor chip optically.)

The target in the next test is T2, rat HER3 antigen (rat, UniProt Q62799 20-643, limits assumed).
T2 construct: also called HER3 (rat)
Description: BIAcore SPR, 1:1 binding model (Group 4).

In a further test the target is T3, monkey HER3 antigen (monkey).
T3 construct: also called HER3 (monkey)
Kind of test: BIAcore SPR, 1:1 binding model (Group 2).

In the next test the target is T4, human HER3 antigen (human, UniProt P21860 in part, limits assumed).
T4 construct: also called HER3 (human)
Description: BIAcore SPR, 1:1 binding model (Group 1).

Chain of mouse HER3 antigen (Q61526 20-641 limits assumed): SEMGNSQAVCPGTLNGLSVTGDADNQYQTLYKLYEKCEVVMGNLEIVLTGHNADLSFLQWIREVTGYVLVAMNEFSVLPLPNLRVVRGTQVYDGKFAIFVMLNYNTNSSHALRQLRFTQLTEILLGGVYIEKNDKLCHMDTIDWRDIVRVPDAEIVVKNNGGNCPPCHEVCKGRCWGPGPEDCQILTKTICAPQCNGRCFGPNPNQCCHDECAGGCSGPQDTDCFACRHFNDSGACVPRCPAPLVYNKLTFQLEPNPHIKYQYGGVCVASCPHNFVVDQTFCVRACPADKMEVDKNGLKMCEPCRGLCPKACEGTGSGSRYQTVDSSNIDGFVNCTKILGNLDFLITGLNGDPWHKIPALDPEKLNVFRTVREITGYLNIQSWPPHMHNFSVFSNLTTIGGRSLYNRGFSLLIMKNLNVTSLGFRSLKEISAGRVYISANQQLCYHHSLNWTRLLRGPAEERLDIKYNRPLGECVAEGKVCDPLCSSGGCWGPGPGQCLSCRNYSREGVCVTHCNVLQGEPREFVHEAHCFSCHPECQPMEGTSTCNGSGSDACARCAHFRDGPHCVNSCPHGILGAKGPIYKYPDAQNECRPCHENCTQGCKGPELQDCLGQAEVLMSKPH
Chain of rat HER3 antigen (Q62799 20-643 limits assumed): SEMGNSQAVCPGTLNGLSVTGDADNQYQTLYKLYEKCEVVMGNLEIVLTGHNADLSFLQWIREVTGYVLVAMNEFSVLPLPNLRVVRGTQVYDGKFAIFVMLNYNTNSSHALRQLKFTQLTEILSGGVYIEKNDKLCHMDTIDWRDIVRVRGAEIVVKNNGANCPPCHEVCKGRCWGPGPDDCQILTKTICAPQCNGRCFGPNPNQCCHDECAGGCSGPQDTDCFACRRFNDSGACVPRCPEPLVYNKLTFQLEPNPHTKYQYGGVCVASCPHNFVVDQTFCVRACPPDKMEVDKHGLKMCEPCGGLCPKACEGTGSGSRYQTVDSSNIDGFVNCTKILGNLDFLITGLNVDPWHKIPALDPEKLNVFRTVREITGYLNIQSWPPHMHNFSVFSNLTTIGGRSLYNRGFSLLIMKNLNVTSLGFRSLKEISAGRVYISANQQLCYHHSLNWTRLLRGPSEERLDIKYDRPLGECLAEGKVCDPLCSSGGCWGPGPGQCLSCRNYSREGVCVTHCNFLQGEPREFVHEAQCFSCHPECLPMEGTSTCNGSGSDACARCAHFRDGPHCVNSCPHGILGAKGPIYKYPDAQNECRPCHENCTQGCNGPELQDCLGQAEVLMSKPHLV

B1: anti-HER3 mAb/NRG-1 fusion protein (recombinant fusion protein with Fc mutations) (other)
heavy: QVQLQQWGAGLLKPSETLSLTCAVYGGSFSGYYWSWIRQPPGKGLEWIGEINHSGSTNYNPSLKSRVTISVETSKNQFSLKLSSVTAADTAVYYCARDKWTWYFDLWGRGTLVTVSSASTKGPSVFPLAPSSKSTSGGTAALGCLVKDYFPEPVTVSWNSGALTSGVHTFPAVLQSSGLYSLSSVVTVPSSSLGTQTYICNVNHKPSNTKVDKRVEPKSCDKTHTCPPCPAPEFLGGPAVFLFPPKPKDTLMISRTPEVTCVVVDVSHEDPEVKFNWYVDGVEVHNAKTKPREEQYNSTYRVVSVLTVLHQDWLNGKEYKCKVSNKALPAPIEKTISKAKGQPREPQVYTLPPSREEMTKNQVSLTCLVKGFYPSDIAVEWESNGQPENNYKTTPPVLDSDGSFFLYSKLTVDKSRWQQGNVFSCSVMHEALHAHYTQKSLSLSPGKGGGGSGGGGSSHLVKCAEKEKTFCVNGGECFMVKDLSNPSRYLCKCPNEFTGDRCQNYVMASFYKAEELYQ
light: [left out - about 200 residues]
notes: It carries the Fc mutations L234F, S239A and N434A; Made in CHO-derived HD-BIOP3 cells; also called the recombinant fusion protein disclosed herein; NRG-1/HER3 antibody fusion protein
Consider B1, for which the koff with mouse HER3 antigen was found to be 0.00251 s⁻¹; with rat HER3 antigen, 0.003 s⁻¹; with monkey HER3 antigen, 0.000264 s⁻¹; with human HER3 antigen it was 0.000228 s⁻¹. The kon with mouse HER3 antigen came to 906000 M⁻¹ s⁻¹; with rat HER3 antigen it was 1.12e+06 M⁻¹ s⁻¹; with monkey HER3 antigen, 666000 M⁻¹ s⁻¹; with human HER3 antigen it was 727000 M⁻¹ s⁻¹.
